We go through 85 molecules from ChEMBL document CHEMBL1201862, “PubChem BioAssay data set” (2004).

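Dose response: 5 concentrations. Exposure: 48 h. Format: 96-well plates. Endpoint: linear interpolation; highest concentration if not reached. GI50 is the concentration that inhibits growth by half.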 Calls of active or inactive are those of the source. Rule as the data show it: active = GI50 up to about 1.1 µM and inactive = higher.

In this test the test system is NCI-H322M. The test can be described thus: DTP human tumour cell line panel, 48 h.
Take `Nc1nc(-c2ccccc2)cc(-c2ccccc2O)n1`: the GI50 was inactive: 7.83 µM.
As to `CSC1(SC2=NCCN2)SC2(NCCN2)S1`, the GI50 is inactive: 18.3 µM.
To `N/C(=N\O)N/N=C/c1ncccc1O` belongs inactive: 18.3 µM; to `NCCNc1ncnc2ccc(Cl)cc12`, inactive: 96.2 µM.
With `CCc1ccc(CCN2CCCCC2)nc1`, the GI50 is inactive: > 100 µM.
As for `Nc1nc(N)nc(CC(=O)O)n1`, the GI50 was inactive: > 100 µM.
As to `CC1(Br)Cc2ccccc2C1=O` (stereo not given), the GI50 is inactive: 12.9 µM.
The same measure for `CSc1nc(=S)[nH]c2c1c(C)nn2-c1ccccc1`: inactive: 20.1 µM; for `CCc1ccc(Cc2ccc(CC)c(NC(=O)C(=O)Cc3nc4ccccc4nc3C)c2CC)c(CC)c1NC(=O)C(=O)Cc1nc2ccccc2nc1C`: inactive: 53.8 µM; for `O=C(CC(C(=O)c1cccs1)c1ccsc1)c1ccsc1` (stereo not given): inactive: 32.1 µM.
To `O=C(NCc1cccnc1)C(=O)NCc1cccnc1` belongs inactive: > 100 µM.
Consider `CN(C)CCCNC(=O)N/N=C/c1ccccn1`, for which the GI50 was inactive: > 10 µM.
As to `CC1CC#CCOC(=O)CCCC1=O` (stereo not given), the GI50 was inactive: > 100 µM.
The same measure for `N#Cc1c(O)c(/C=N/c2ncccn2)c(=O)n2c1[nH]c1ccccc12`: inactive: > 100 µM.
The same measure for `COc1ccc(OC)c2c(C(=O)O)c(C(C)c3ccccc3)ccc12` (stereo not given): inactive: > 100 µM; for `CC1=C(C(=O)Nc2cccc3c2C(=O)NC3=O)CC(C(=O)Nc2cccc3c2C(=O)NC3=O)=C(C)N1`: inactive: > 100 µM.
The same measure for `N#Cc1c(N2CCOCC2)[nH]c(=O)c(C(c2c(Cl)cccc2Cl)c2c(O)c(C#N)c(N3CCOCC3)[nH]c2=O)c1O`: inactive: 19.4 µM; for `COc1ccccc1NCC(=O)Nn1c(C)nc2ccc(S(=O)(=O)Nc3ccccc3OC)cc2c1=O`: inactive: > 100 µM; for `CC(/C=N\NC(=S)N1CCCCC1)=N/NC(=S)N1CCCCC1`: inactive: 1.29 µM.
Regarding `CN(C)c1ncnc2c1ncn2C1C=CC(COS(N)(=O)=O)C1` (stereo not given), the GI50 was inactive: > 100 µM.
Take `O=S1(=O)CSc2ccc3ccccc3c2-c2c1ccc1ccccc21`: the GI50 is inactive: > 100 µM.
To `Cc1c(/C=N/NC(=S)N2CCCCC2)c(=O)n(-c2ccccc2)n1C` belongs inactive: > 100 µM; to `Cc1nc2sc3ccccc3n2c(=O)c1/N=N/c1ccc(Cl)cc1`, inactive: > 100 µM; to `CN(CCc1ccc(Cl)c(Cl)c1)[C@H]1CCCC[C@H]1N1CCCC1`, inactive: > 100 µM.
The same measure for `COc1ccc(CN2CC(C)(C)C2=O)c(OC)c1`: inactive: > 100 µM; for `O=C(/C=C(\O)C(=O)O)/C=C(\O)c1ccc(Cl)cc1`: inactive: > 100 µM; for `OCC1OC(n2cnc3c(/C=C(/O)c4ccccc4)ncnc32)C(O)C1O` (stereo not given): inactive: 6.38 µM.
Take `Fc1cccc(F)c1C1SCc2nc3cc4ccccc4cc3n21` (stereo not given): the GI50 was inactive: 45.2 µM.
In the case of `Clc1ccccc1-c1nnc2c(-c3ccccc3)nc3ccccc3n12`, the GI50 is inactive: 44.2 µM.
The same measure for `CC(=O)NNC(=S)N/C=C1/C(=O)C=C(C)OC1=O`: inactive: > 100 µM.
As to `COc1ccc2[nH]c3c4c(c5cc(C(C)(C)C)ccc5c3c2c1)C(=O)N(c1ccccc1)C4=O`, the GI50 is inactive: > 100 µM.
For the molecule `COC1(OC)CC2C(=O)N(Cc3ccccc3)C1C(S(=O)(=O)c1ccccc1)C2S(=O)(=O)c1ccccc1` (stereo not given), the GI50 was inactive: 87.1 µM.
`COc1ccc(C(Nc2ccccn2)c2cc(C(C)(C)C)cc(C(C)(C)C)c2O)cc1` (stereo not given): the GI50 is inactive: 34 µM.
As for `OC1[C@H](O)CN(OCc2ccccc2)C[C@@H]1O` (stereo not given in full), the GI50 was inactive: > 100 µM.
The same measure for `O=c1n(-c2ccccc2)c(=O)n2n1C1C=CC2C2C(C1)C2(Cl)Cl` (stereo not given): inactive: > 100 µM; for `C=Cc1ccccc1C1C(C(=O)OCC)=C(C)N=C2OC(C(=O)OC)C(=O)N21` (stereo not given): inactive: > 100 µM; for `O=C(O)c1cc(S(=O)(=O)N/N=C\c2c3ccccc3[n+]([O-])c3ccccc23)ccc1O`: inactive: 13.6 µM.
`CN1C(=O)C23CC4=CC=CC(O)C4N2C(=O)C1(CO)SS3` (stereo not given): the GI50 is active: 0.193 µM.
The same measure for `CCn1c(=O)c2c3cc(O)ccc3oc2c2ccc(O)cc21`: inactive: 32.1 µM; for `O=C(NCc1cccc(C(F)(F)F)c1)c1cc2sccc2nc1C(F)(F)F`: inactive: 38.2 µM.
The same measure for `O=C1c2ccccc2C2(O)N(c3ccccc3)C(=S)N(c3ccccc3)C12O` (stereo not given): inactive: > 100 µM; for `CCCCCCCCCCCCCCCCCCNc1ccn(C2OC(CO)C(OP(=O)(O)OCC(O)COP(=O)(O)OCC3OC(n4cc(F)c(NCCCCCCCCCCCCCCCCCC)nc4=O)CC3O)C2O)c(=O)n1` (stereo not given): inactive: > 50 µM.
To `O=C1Nc2ccccc2/C1=C/c1c(Cl)[nH]c2ccc(O)cc12` belongs inactive: 5.2 µM; to `CCCN1C(=O)CCC2=C1CCc1c2ccc(Cl)c1Cl`, inactive: 31.7 µM; to `COC(=O)/C(=N\N)C(C(=O)C(=O)Nc1cc(Cl)ccc1Cl)c1nc2ccc([N+](=O)[O-])cc2nc1O` (stereo not given), inactive: > 100 µM.
For the molecule `CCCCCc1cc2cc3c(c(O)c2c(=O)[nH]1)C1(CCC3)C(=O)c2c(O)ccc(O)c2C1=O`, the GI50 is inactive: > 100 µM.
To `COc1ccccc1NC(=O)C1=C(C)NC(C)=C(C(=O)Nc2ccccc2OC)C1c1ccc(C)cc1` belongs inactive: > 100 µM; to `COc1ccc(/C=C2\Sc3nnc(C)n3N=C2c2cc(F)c(Cl)cc2Cl)cc1OC`, inactive: 18 µM; to `NS(=O)(=O)c1ccc(/N=N/c2nc3[nH]cnc(=S)c3[nH]2)cc1`, inactive: 4.92 µM.
In the case of `CC(=O)n1nc(-c2[nH]c(C)c(-c3nn(C(C)=O)c(=S)o3)c2C)oc1=S`, the GI50 was inactive: > 100 µM.
The same measure for `COc1ccc(/C(=N/N=c2[nH]c3ccccc3[nH]2)C(=O)O)cc1`: inactive: > 100 µM; for `C=CCC(C(=O)Nc1cccc2nc[nH]c12)C(=O)OCC` (stereo not given): inactive: > 100 µM.
The same measure for `CC(=O)OCC1OC(n2c3c(c(-c4cccc5ccccc45)c(C#N)c2=S)CCCC3)C(OC(C)=O)C(OC(C)=O)C1OC(C)=O` (stereo not given): inactive: > 100 µM; for `Cc1ccc(S(=O)(=O)CC2(Br)CCc3ccccc3C2=O)cc1` (stereo not given): inactive: > 100 µM.
The same measure for `COc1cc([C@@H]2c3cc4c(cc3[C@@H](NCc3ccccc3F)C3COC(=O)[C@@H]32)OCO4)cc(OC)c1O` (stereo not given in full): inactive: 36.2 µM.
For the molecule `NC(=O)C(c1ccccc1)N1CCOCC1` (stereo not given), the GI50 is inactive: > 100 µM.
Consider `O=c1n(CCO)nc2n1CCCN2`, for which the GI50 was inactive: > 100 µM.
The same measure for `COc1cc2c(cc1OC)C(=O)/C(=C/c1ccc([N+](=O)[O-])cc1)CC2`: inactive: > 10 µM; for `CCOC(=O)c1c(O)cc(=O)[nH]c1N1CCOCC1`: inactive: > 100 µM; for `NC(=S)NS(=O)(=O)c1ccc(F)cc1F`: inactive: > 100 µM.
As for `CCCCN1C(=O)C2Cc3c([nH]c4ccccc34)C(c3cccc(O)c3)N2C1=O` (stereo not given), the GI50 is inactive: 17.4 µM.
The same measure for `CCCNC(=O)N1CC(CN2CCN(c3ccccc3)CC2)O/C1=N/C(=O)Nc1ccccc1` (stereo not given): inactive: > 100 µM; for `O=S1(=O)c2ccccc2N(O)C2=NCCN21`: inactive: > 100 µM.
Regarding `C1=C2C3=[N+](CCCC3)CC2Cc2sccc21` (stereo not given), the GI50 was inactive: > 100 µM.
The same measure for `CCOC(=O)C1=C(C)NC(c2ccccc2)=C(C(=O)OCc2ccccc2)C1C#Cc1ccccc1` (stereo not given): inactive: > 100 µM.
On to `C=CCc1cc2cccc(OC)c2oc1=O`, for which the GI50 was inactive: > 100 µM.
Turning to `O=c1[nH]n(Cc2ccccc2)c2ccc([N+](=O)[O-])cc12`, the GI50 was inactive: > 100 µM.
To `CN(C)CCNC(=O)c1cccc2c(NC(CCCNC(=N)N)C(=O)O)c3ccccc3[n+](C)c12` (stereo not given) belongs inactive: 91.6 µM; to `COC(=O)/C=C(/C(=O)OC)c1c(C)cc2c(C)cc(C)cc(C)c1-2`, inactive: 31 µM; to `CC/C=N\N1C(N)=C(C#N)C(C#N)(C#N)C1CC` (stereo not given), inactive: > 100 µM.
To `CC(C)(C)OC(=O)N/C(C=O)=C\C1CCCCC1` belongs inactive: 23.8 µM.
To `Cn1c(=S)sc2nc3ccccc3n2c1=S` belongs inactive: 13.6 µM.
For the molecule `CC(C)=CC(=O)C/C(=N\NC(N)=S)C(=O)Nc1ccc(Cl)cc1`, the GI50 was inactive: > 100 µM.
To `CC12CC3CC(C)(C1)CC(N=[N+]=[N-])(C3)C2` belongs inactive: > 100 µM.
To `CCn1c(=O)c2nc(SC)sc2n(-c2ccccc2)c1=O` belongs inactive: > 100 µM; to `O=[N+]([O-])c1ccc(/C=C\c2ccc3c(c2)OCO3)c([N+](=O)[O-])c1`, inactive: 16.6 µM.
As for `CCOC(=O)c1ccc(-c2cc(C)[nH]n2)[nH]1`, the GI50 was inactive: > 100 µM.
The same measure for `O=C1C(Br)=CC2([N+](=O)[O-])CCNC3=C(C4=NCCc5c[nH]c(c54)C3=O)C2=C1Br` (stereo not given): inactive: 1.16 µM; for `CC(=O)Nc1ccc(NS(=O)(=O)c2ccc3nc(C)n(NS(=O)(=O)c4ccc(NC(C)=O)cc4)c(=O)c3c2)cc1`: inactive: > 100 µM; for `O=C(N[C@H]1c2ccsc2/C(=N/O)[C@H]1O)C(F)(F)F`: inactive: > 100 µM.
The same measure for `CC(C)C1=CC23CCC4C(C)(C(=O)O)CCCC4(C)C2CC1C(C(=O)O)C3C(=O)O` (stereo not given): inactive: > 100 µM.
For the molecule `NC(=O)c1cccc([C@@H]2O[C@H](CO)[C@@H](O)[C@H]2O)c1`, the GI50 is inactive: 29 µM.
To `c1ccc([B-]2(c3ccccc3)OCCc3cccc[n+]32)cc1` belongs inactive: 73.3 µM; to `Cc1[nH]c(O)nc1C(=O)c1ccc(-n2ccnc2)cc1`, inactive: > 100 µM.
The same measure for `[N-]=[N+]=NC1C(Br)C(=O)NC(=O)N1[C@H]1C[C@H](O)[C@@H](CO)O1` (stereo not given in full): inactive: > 100 µM.

Broadly, the GI50 is the concentration at which growth is held to half of that of the control.
